Results: PMC6919601, “Identification of Plasmodium dipeptidyl aminopeptidase allosteric inhibitors by high throughput screening” (PLoS ONE, 2019)
Hit rate of the full screen: of about 110,000 compounds, about 230 (0.21%) showed an effect of 50% or more. The list shows a part of the results.
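Further: 30 min substrate incubation versus DMSO and 10 µM JCP410 controls.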

The molecules below were run against DPAP1 (Plasmodium falciparum, UniProt Q8IIJ9) (assay: primary screen, percent inhibition; read by cleavage of a fluorogenic dipeptide substrate; higher = more effect of the substance).
Sequence of DPAP1 (Q8IIJ9 whole entry, looked up): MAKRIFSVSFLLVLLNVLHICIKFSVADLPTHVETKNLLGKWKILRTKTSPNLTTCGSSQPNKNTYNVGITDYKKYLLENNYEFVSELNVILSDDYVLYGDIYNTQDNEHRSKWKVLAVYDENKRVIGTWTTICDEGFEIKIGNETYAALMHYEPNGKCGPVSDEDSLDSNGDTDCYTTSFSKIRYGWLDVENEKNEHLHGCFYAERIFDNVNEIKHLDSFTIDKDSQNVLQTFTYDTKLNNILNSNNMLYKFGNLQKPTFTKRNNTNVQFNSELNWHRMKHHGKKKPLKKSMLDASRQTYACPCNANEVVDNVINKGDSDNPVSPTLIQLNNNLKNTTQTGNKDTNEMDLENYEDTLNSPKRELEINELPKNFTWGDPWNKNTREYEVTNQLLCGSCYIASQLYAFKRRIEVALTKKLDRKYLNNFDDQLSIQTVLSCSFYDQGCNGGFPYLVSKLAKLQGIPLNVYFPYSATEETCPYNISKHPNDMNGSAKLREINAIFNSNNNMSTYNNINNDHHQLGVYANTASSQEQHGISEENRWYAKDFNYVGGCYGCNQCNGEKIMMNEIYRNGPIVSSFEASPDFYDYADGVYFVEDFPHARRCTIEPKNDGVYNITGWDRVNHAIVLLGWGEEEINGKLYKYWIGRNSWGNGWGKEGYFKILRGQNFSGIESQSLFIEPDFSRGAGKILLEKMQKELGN
Parameters: species or system P. falciparum D10 trophozoite lysates; single well
With `CCOc1ccc(C2CC(c3ccc(Cl)cc3)Nc3ncnn32)cc1OC` (stereo not shown) the “% Inhibition @ 10 uM” value was 0.0842%. `O=C(Nc1c(O)nc2ccccc2c1O)c1ccc(Br)cc1` was tested, and the “% Inhibition @ 10 uM” value was 1.2%. With `CCC(C(=O)N1CCOCC1)n1cc(C=O)c2ccccc21` (stereo not shown) the “% Inhibition @ 10 uM” value was 6.95%. `COc1ccc(CCNC(=O)CSc2nc3cccnc3[nH]2)cc1OC` was tested, and the “% Inhibition @ 10 uM” value was 3.21%. In the case of `CCOC(=O)C1=C(C)N(c2ccc(C)c(C)c2)C(=O)/C1=C\c1ccccc1`, the “% Inhibition @ 10 uM” value is reported as 3.61%. For `Nc1c(C(=O)Nc2cccc(C(F)(F)F)c2)sc2nc3c(cc12)CCC3`, the “% Inhibition @ 10 uM” value was 3.69%. With `CCCNC(=O)C1CCN(c2nnc(C)c3c(C)n(-c4ccc(C)cc4)nc23)CC1` the “% Inhibition @ 10 uM” value was -1.95%. `O=C(COCc1cc(-c2cccs2)on1)Nc1cccnc1Cl` was tested, and the “% Inhibition @ 10 uM” value was -5.25%. `O=C(O)CC(NC(=O)CCc1ccccc1)c1ccc(Cl)cc1` (stereo not shown) was tested, and the “% Inhibition @ 10 uM” value was 2.57%. With `O=C(Nc1ccc(Oc2ccccc2)cc1)c1ccccc1` the “% Inhibition @ 10 uM” value was -2.41%. With `CCC(C)NC(=O)c1cc(-c2ccc(O)cc2)on1` (stereo not shown) the “% Inhibition @ 10 uM” value was 0.0654%. For `Cc1ccc(-c2nnn3c2nc(NCCc2ccc(S(N)(=O)=O)cc2)c2ccccc23)cc1`, the “% Inhibition @ 10 uM” value was -2.92%. For `C#CCn1cnc2c(cnn2-c2ccccc2)c1=O`, the “% Inhibition @ 10 uM” value was -1.75%. For `O=S1(=O)C(Cl)=C(c2ccccc2)c2ccccc21`, the “% Inhibition @ 10 uM” value was -0.759%. For `Oc1ccc(-c2ccc3c(c2)OCO3)nn1`, the “% Inhibition @ 10 uM” value was 6.92%. For `Cc1ccc(CNC(=O)CCn2ccc3cc(S(=O)(=O)N4CCCCC4)ccc32)o1`, the “% Inhibition @ 10 uM” value was 0.931%. In the case of `COc1ccc2c(Cl)c(C(=O)Nc3ccc(S(=O)(=O)N4CCCC4)cc3)sc2c1`, the “% Inhibition @ 10 uM” value is reported as -2.45%. In the case of `O=C(Cc1cccc2ccccc12)NCc1ccc2c(c1)OCO2`, the “% Inhibition @ 10 uM” value is reported as 3.47%. For `COc1ccc(/C=C/C2=CCN(CC(O)c3ccccc3)CC2)cc1` (stereo not shown), the “% Inhibition @ 10 uM” value was 1.4%. For `Cc1cc(C)cc(OCC(O)CN2CCN(Cc3ccc4c(c3)OCO4)CC2)c1` (stereo not shown), the “% Inhibition @ 10 uM” value was -8.78%. With `CC(C)(C)C(=O)NC1(C(F)(F)F)N=C(c2ccccc2)NC1=O` (stereo not shown) the “% Inhibition @ 10 uM” value was 0.221%. With `O=C(COc1ccc(Cl)cc1)Nc1ccc(C(F)(F)F)cc1` the “% Inhibition @ 10 uM” value was 1.96%. With `CC(=O)n1c2ccccc2c2cc(Br)ccc21` the “% Inhibition @ 10 uM” value was 0.135%. For `CCSc1nc(O)c2c(n1)NC(=O)CC2c1cc(OC)c(OC)c(OC)c1` (stereo not shown), the “% Inhibition @ 10 uM” value was 3.68%. `c1csc(-c2cc3ccccc3[nH]2)c1` was tested, and the “% Inhibition @ 10 uM” value was -5.64%. In the case of `CCOC(=O)c1[nH]c2ccc(OC)cc2c1NC(=S)N1CCN(c2ncccn2)CC1`, the “% Inhibition @ 10 uM” value is reported as -1.71%. `CC1(C)CC(=O)c2c(O)c(-c3ccccc3)c(=O)n(-c3ccc(Cl)cc3)c2C1` was tested, and the “% Inhibition @ 10 uM” value was 0.674%. With `COC(=O)C1=CN(C)C=C(C(=O)OC)C1c1ccc(OC)c(OC)c1` the “% Inhibition @ 10 uM” value was 1.86%.
